# Measurements as given in PubChem BioAssay AID504832 (National Center for Advancing Translational Sciences (NCATS), 2011).
# Out of some 310,000 compounds screened, about 18,000 (5.8%) were called active. Inconclusive results, whose numbers are uncertain, are shown with a selection of clear calls. Calls come from the whole dose curve; as a rule, active = well fitted inhibition curve with a large enough effect; inconclusive = small, poorly fitted or top-dose-only effect, or another doubt; inactive = no such curve, though single readings can be large or run the other way. No potency is given beside an inconclusive call; the fits are too rough.
# Test: Primary qHTS for delayed death inhibitors of the malarial parasite plastid, 48 hour incubation
# Settings: P. falciparum luciferase growth in erythrocytes; series mostly up to 28.7 µM
# How it was run: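 Here the parasites carry a stable luciferase gene and grow inside erythrocytes in Albumax-based RPMI medium with compound for one erythrocytic cycle. Activity is scored as loss of luminescent signal.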
# Potency is the fitted concentration of half-maximal effect; tags give direction and shape of the fitted curve.
row,Compound,Potency
1,O=C(NC(c1ccccc1)c1ccccc1)c1ccc(Br)o1,"inconclusive [inhibitor, single point]"
2,COc1ccc(S(=O)(=O)N2CC(C)N(C(=O)N(C)C)C2C)cc1 (stereo not drawn),inactive
3,O=C(c1ccc2c(c1)OCO2)N(c1ccc(F)cc1)C1C=CS(=O)(=O)C1 (stereo not drawn),"inconclusive [inhibitor, partial curve, poor fit]"
4,CCOC(=O)C1CCN(C(=O)Cc2cccc3ccccc23)CC1,"inconclusive [inhibitor, partial curve, poor fit]"
5,COc1ccc2c(c1)c(CC(=O)NCc1cc([N+](=O)[O-])ccc1O)c(C)n2C(=O)c1ccc(Cl)cc1,"inconclusive [inhibitor, single point]"
6,Cc1cc(Nc2cccc(F)c2)nc(NCc2ccccc2)n1,active: 0.37 µM
7,Cc1ccc(CN(C)C(=O)c2ccc(S(=O)(=O)N3CCCCCC3)cc2)o1,inactive
8,COc1ccc(CC2(CO)CCN(CC3=CC[C@H]4C[C@@H]3C4(C)C)CC2)cc1,active: 7.38 µM
9,COc1ccc(N(C)S(=O)(=O)c2cccc(C(=O)NC3=NCCS3)c2)cc1,"inconclusive [inhibitor, single point]"
10,O=C(c1nc2ccc(Cl)cn2c1CNCC[C@@H]1C[C@@H]2C=C[C@H]1C2)N1CCCCCCC1,"inconclusive [inhibitor, single point]"
11,OCCC1CN(Cc2ccon2)CCN1Cc1ccc(F)c(F)c1 (stereo not drawn),inactive
12,Cc1cccc(NC(=O)COC(=O)CCc2c[nH]c3ccccc23)c1C,active: 13.1 µM
13,CCCCCc1c(C)nc(Nc2ccc(F)cc2)[nH]c1=O,"inconclusive [inhibitor, single point]"
14,Cc1nc2c(sc3nc(N4CCOCC4)c4c(c32)CC(C)(C)OC4)c(-c2ccccc2)c1C(=O)O,inactive
15,Cc1nc(-c2ccc(F)cc2)c(CC(=O)N2CCN(S(=O)(=O)c3cccc([N+](=O)[O-])c3)CC2)s1,active: 9.28 µM
16,CCOc1ccccc1NC(=O)C(OC(=O)c1ccc(CC)cc1)c1ccccc1 (stereo not drawn),"inconclusive [inhibitor, single point]"
17,CCOc1ccc2oc(=O)cc(CN3CCN(Cc4ccccc4)CC3)c2c1,"inconclusive [inhibitor, partial curve, poor fit]"
18,COc1cccc(NC(=O)CCCn2c(=O)[nH]c3ccccc3c2=O)c1,"inconclusive [inhibitor, full curve, poor fit]"
19,CCCCN(Cc1ccccc1)C1CCN(Cc2ccccc2)CC1,"inconclusive [inhibitor, single point]"
20,C=CCN(CC=C)CC(=O)Nc1cccc(Oc2cnccn2)c1,inactive
21,COc1ccc(C)cc1NC(=O)CSc1nc2ccccc2nc1N1CCCC1,"inconclusive [inhibitor, partial curve]"
22,CCOC(=O)N1CCN(S(=O)(=O)c2cc(Br)cc3c2N(C(C)=O)C(C)C3)CC1 (stereo not drawn),"inconclusive [inhibitor, partial curve]"

row,Compound,Potency
1,CCC(=O)N1CCc2cc(Br)cc(S(=O)(=O)N3CCCC(C(=O)NC(C)(C)C)C3)c21 (stereo not drawn),active: 1.17 µM
2,N#Cc1ccccc1OCC(=O)NCCNC(=O)COc1ccccc1C#N,"inconclusive [inhibitor, single point]"
3,Cc1ccc(CNC(=O)CCCCCNC(=O)N2CCn3c2nc2ccccc23)cc1,inactive
4,COc1cc(C(=O)NC(c2ccccc2)c2ccccc2)cc(OC)c1OC,"inconclusive [inhibitor, partial curve, poor fit]"
5,CCN1CCN(C(=S)NC(C)c2ccccc2)CC1 (stereo not drawn),inactive
6,CCOC(=O)c1cnc2c(C)c(Cl)ccc2c1N1CCN(CC)CC1,"inconclusive [inhibitor, partial curve]"
7,C/C(=N\N(Cc1ccccc1)c1ccccc1)c1cccnc1,active: 8.28 µM
8,O=C(Nc1cccc2ccccc12)N1CCCN(c2c(Cl)cncc2Cl)CC1,"inconclusive [inhibitor, single point]"
9,CCOc1ccc(-n2c(SCC(=O)Nc3cc(C(=O)O)ccc3Cl)nc3ccccc3c2=O)cc1,"inconclusive [inhibitor, partial curve]"
10,COc1ccc(-c2nc(C(N)=O)c3[nH]c(=O)n(-c4cccc(C)c4)c3n2)c(OC)c1,"inconclusive [inhibitor, single point]"
11,COc1ccc(Cl)cc1NC(=O)CN(C)C1CCS(=O)(=O)C1 (stereo not drawn),"inconclusive [inhibitor, single point]"
12,CCc1nc(Sc2nc(C)cc(C)n2)c2oc3ccccc3c2n1,"inconclusive [inhibitor, single point]"
13,COc1ccc(/C=C2\SC(=Nc3ccccc3)NC2=O)cc1,"inconclusive [inhibitor, full curve]"
14,Brc1cccc(CNc2nc3ccccc3n2CCN2CCOCC2)c1,"inconclusive [inhibitor, partial curve]"
15,O=C(Nc1cccc(Br)c1)c1cccc(OC(=S)N2CCOCC2)c1,"inconclusive [inhibitor, single point]"
16,COc1ccc(N2CCN(c3ccc(S(=O)(=O)N(C(C)C)C(C)C)cn3)CC2)cc1,"inconclusive [inhibitor, partial curve, poor fit]"
17,CCOC(=O)COc1ccc2cc(C(=O)OCC)c(=O)oc2c1,"inconclusive [inhibitor, partial curve, poor fit]"
18,NC(=O)c1ccc(NC(=O)c2cccc(Oc3ccccc3)c2)cc1,inactive
19,Cc1cc(Cl)ccc1OCC(=O)Nc1ccc(CN2CCOCC2)cc1,"inconclusive [inhibitor, single point]"
20,CCCN1CCC(=O)N([C@H](CSc2ccc(C)cc2)c2ccccc2)CC1,"inconclusive [inhibitor, single point]"
21,CCc1ccc(Sc2cc(C(=O)NCCN3CCOCC3)c3ccccc3n2)cc1,"inconclusive [inhibitor, partial curve]"
